# For some assays here: What follows is the remainder of the data, with few or none of the strong results. Only a part is listed here, and it is no random draw.
# Legend:
# Conditions in all cases: concentration: 1 μM,replicates: in singlicate; n = 1
# RAF1 = tested on: RAF1
# RET = tested on: RET
# RIOK1 = tested on: RIOK1
# RIOK2 = tested on: RIOK2
# RIOK3 = tested on: RIOK3
# RIPK1 = tested on: RIPK1
# RIPK2 = tested on: RIPK2
# RIPK4 = tested on: RIPK4
# RIPK5 = tested on: RIPK5
# ROCK1 = tested on: ROCK1
# ROCK2 = tested on: ROCK2
# ROS1 = tested on: ROS1
# [1] = tested on: RPS6KA4(Kin.Dom.1-N-terminal)
# [2] = tested on: RPS6KA4(Kin.Dom.2-C-terminal)
# [3] = tested on: RPS6KA5(Kin.Dom.1-N-terminal)
# [4] = tested on: RPS6KA5(Kin.Dom.2-C-terminal)
# [5] = tested on: T1, RSK1(Kin.Dom.1-N-terminal)
# T1 construct: gene RPS6KA1
# [6] = tested on: T2, RSK1(Kin.Dom.2-C-terminal)
# T2 construct: gene RPS6KA1
# [7] = tested on: T3, RSK2(Kin.Dom.1-N-terminal)
# T3 construct: gene RPS6KA3
# [8] = tested on: T4, RSK2(Kin.Dom.2-C-terminal)
# T4 construct: gene RPS6KA3
# 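Further: KINOMEscan kinase panel screen.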
Structure (SMILES),%Inh (RAF1) [%],%Inh (RET) [%],%Inh (RIOK1) [%],%Inh (RIOK2) [%],%Inh (RIOK3) [%],%Inh (RIPK1) [%],%Inh (RIPK2) [%],%Inh (RIPK4) [%],%Inh (RIPK5) [%],%Inh (ROCK1) [%],%Inh (ROCK2) [%],%Inh (ROS1) [%],%Inh [1] [%],%Inh [2] [%],%Inh [3] [%],%Inh [4] [%],%Inh [5] [%],%Inh [6] [%],%Inh [7] [%],%Inh [8] [%]
O=C1NC(=O)C(c2ccc(Cl)cc2)=C1Nc1ccccc1 [SB-317661],13,0,0,0,0,0,0,0,23,3,53,0,2,25,0,0,0,0,50,0
COc1ccc(C2=C(Nc3cccc(Cl)c3)C(=O)NC2=O)cc1 [SB-326892],27,0,29,0,23,0,0,0,0,0,0,0,8,6,0,2,0,57,7,6
CS(=O)(=O)c1ccccc1-c1nc(-c2ccc(F)cc2)c(-c2ccncc2)[nH]1 [SB-213663],47,36,29,0,10,0,30,26,0,11,43,0,21,0,0,0,24,24,5,14
O=C1NC(=O)C(c2ccccc2Cl)=C1Nc1cccc(C(=O)O)c1 [SB-390526],4,10,23,16,0,1,11,2,0,0,14,0,0,0,0,0,0,0,0,0
O=C(O)c1ccc(-c2nc(-c3ccc(F)cc3)c(-c3ccncc3)[nH]2)cc1 [SB-202620],47,31,8,0,4,0,78,32,30,0,11,3,5,0,6,18,34,76,34,0
O=C1NC(=O)C(c2ccccc2)=C1Nc1cc(Cl)c(O)c(Cl)c1 [SB-390530],20,0,15,0,11,0,0,6,4,8,5,0,0,0,5,0,0,0,0,6
O=C1NC(=O)C(c2ccc(Cl)cc2)=C1Nc1cccc(C(=O)O)c1 [SB-360737],22,10,21,0,6,0,7,18,14,75,70,0,11,0,11,0,27,6,8,0
Cc1cc(C)cc(Oc2nccc(-c3c(-c4ccc(F)cc4)ncn3C3CCNCC3)n2)c1.O=C(O)C(F)(F)F.O=C(O)C(F)(F)F.O=C(O)C(F)(F)F [SB-284851],37,0,35,0,32,0,39,0,0,0,0,0,0,0,0,17,0,0,12,49
COc1cccc(C2=C(Nc3ccc(SC)cc3)C(=O)NC2=O)c1 [SB-331032],8,0,33,0,22,2,0,9,26,0,28,22,17,0,0,20,0,34,38,7
Cc1ccc(C)c(Oc2nccc(-c3c(-c4ccc(F)cc4)ncn3C3CCNCC3)n2)c1.O=C(O)C(F)(F)F.O=C(O)C(F)(F)F.O=C(O)C(F)(F)F [SB-284852],0,0,39,0,28,0,38,0,0,0,0,0,17,5,3,6,7,0,0,30
O=C1NC(=O)C(c2ccc(Cl)cc2)=C1Nc1cccc(O)c1 [SB-333613],19,6,0,6,9,0,0,34,38,33,32,0,0,0,0,0,0,24,37,47
O=C1NC(=O)c2c1c(-c1ccccc1)cc1[nH]c3ccc(O)cc3c21,0,9,70,0,88,0,12,18,29,13,21,0,68,14,0,1,65,14,93.8,0
O=C1NC(=O)C(c2ccccc2Cl)=C1Nc1ccccc1 [SB-376715],10,14,11,0,12,1,24,0,0,0,0,14,0,0,0,4,0,0,0,0
CSc1ccc(NC2=C(c3cccc(Cl)c3)C(=O)NC2=O)cc1 [SB-341528],24,0,9,0,0,0,0,5,10,7,0,21,11,7,3,2,22,0,14,0
O=C1NC(=O)C(c2ccccc2)=C1Nc1ccc(Cl)c(C(=O)O)c1 [SB-390532],2,13,9,0,0,45,26,15,0,40,26,0,0,0,0,0,25,0,4,16
O=C1NC(=O)C(c2ccc(Cl)cc2)=C1Nc1ccc(O)c(Cl)c1 [SB-405367],17,0,0,0,10,0,0,16,28,0,0,0,0,14,0,2,9,26,19,0
